The labels stand for the following.
T1: UNK ZnF1-3 (human, UniProt Q9C0B0 31-174)
T1 sequence: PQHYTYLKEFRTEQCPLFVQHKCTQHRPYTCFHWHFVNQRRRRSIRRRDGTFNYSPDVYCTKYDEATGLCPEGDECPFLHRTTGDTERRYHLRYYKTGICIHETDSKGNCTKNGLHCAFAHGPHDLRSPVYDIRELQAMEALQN

B1: chr11:4127340:4127341:+_ENSG00000167325_ENST00000300738|hu_mus|hu_hu_hu_mus_False|88_88 (ssRNA)
RNA: GGGAGUUCUACAGUCCGACGAUCGGCAUAGUCAGGGUGCUUCGUGGUCAAGGUUGCGGCUGUCUCAGCAGCCAGGGUGUCCAGUUCCACUGUGGUGACCCCACUAUAUAGGCCUUGGAUUACUUUCAUGGUGAUCUGAGCAGGCAACAGAGGAUUGAGCAUCA
B2: chr17:35253193:35253194:-_ENSMUSG00000024387_ENSMUST00000025246|mus_mus|motif|central (ssRNA)
RNA: GGGAGUUCUACAGUCCGACGAUCGGCCUUUUCUUCCUUUAUUUCAUAUUCCCACCACAGUAACAAUUCCUUUAAUUUAAACGGAAAACCAUAGACUUCCUGAAAGGGUGGCAGCAGAGGAAUGGUGGUGUCACAGACAGAGGGCAACAGAGGAUUGAGCAUCA
B3: chr2:217001844:217001845:+_ENSG00000079246_ENST00000392132|hu_hu|hu_hu_hu_mus_False|68_78 (ssRNA)
RNA: GGGAGUUCUACAGUCCGACGAUCACCAACUUGAGGAUUAGAUCUUUUGUCAUAAGCAUAUCGAACUAUGGCCACCAUGUUUAACUCAUCCAAAGCAUGAACGAGAGAGGAAAGGGCAACAGCUGCCGCCUCAUCAUCCUUUGCCAACAGAGGAUUGAGCAUCA
B4: chr19:53463844:53463845:-_ENSMUSG00000025024_ENSMUST00000025997|mus_mus|FALSE|FALSE (ssRNA)
RNA: GGGAGUUCUACAGUCCGACGAUCUCAUUUUCUCCAUUUCCAGAAAGGGCAGCUUCUACUUGCUGGAGUUGAGCUUUGUAGCUAGCCAACUGUUUUGCUAGAUCCUCUGACAUCUUGGGUGGGGCUGGGGUCGGGACGGCGGGCCAACAGAGGAUUGAGCAUCA
B5: chr17:21088332:21088333:+_ENSMUSG00000007564_ENSMUST00000007708|mus_mus|motif|central (ssRNA)
RNA: GGGAGUUCUACAGUCCGACGAUCCUCACUUCUGGUCCGUUCAACCCCAAGGGCCAAGGCAAUUGUGGAGAGCUUCUUGAUACGGUUGAGACGAAGCUGAACGUCCUCAUUGCGGAGUUCAUCUAUGAGCACCGCAAUAGGAUACAACAGAGGAUUGAGCAUCA
B6: 50987589_50987709_1136_3pUTR_ENSMUSG00000017144_ENSMUST00000017288|mouse|control|control (ssRNA)
RNA: GGGAGUUCUACAGUCCGACGAUCUUCGCUUCUCACCACUCGGUCUACAUGCCGAAACUAAGGACAGGAUUCCGAAAAGUGGGUAUCCUUUCAAGGGCCUCCUAAGCCUGUAUCUAUGUGACUUUGGCUGUGCACUUCAUUUGACAACAGAGGAUUGAGCAUCA
B7: chr1:100327937:100327938:+_ENSG00000162688_ENST00000361915|hu_mus|motif|central (ssRNA)
RNA: GGGAGUUCUACAGUCCGACGAUCCUCCUUUGCCACCCUUAGCCGGCUUUCCCACUCAUCGAAGGGUCCUAAGCACUUUGCGGAGAACGUCUGCAGAGUAACACAGUCCAAGGGUAACACGUGGUUAUCAACUCCAAUGCGUAACAACAGAGGAUUGAGCAUCA
B8: chr4:76721835:76721836:+_ENSG00000138768_ENST00000264904|hu_mus|hu_hu_hu_mus_True|48_78 (ssRNA)
RNA: GGGAGUUCUACAGUCCGACGAUCGUUUGGCUGGGGUUUCUGAGACGCUCUGGAAUAAACUCAUGUUUUGCUAAUAAAUCCUAGUUUUCUAUGAAAUUUCUCUUUGCCAAUCCUCUUCUCUAUUAGUUGCUUUAGUUUCUCUUUCAACAGAGGAUUGAGCAUCA
B9: chr11:62190249:62190250:-_ENSMUSG00000018501_ENSMUST00000155712|mus_hu|FALSE|FALSE (ssRNA)
RNA: GGGAGUUCUACAGUCCGACGAUCAGCAGAAACAGUGGAAGCGACACUUUCACAUUGAGACACAUCUCGCUCUUCACGAGGUUUUCGUGAAGUUUUCUGUUUAUGCUGCUGUAAGAGGUUGUCAAGAUUGUGUCGCCUUUUAUACAACAGAGGAUUGAGCAUCA
B10: chr20:36033742:36033743:+_ENSG00000197122_ENST00000358208|hu_mus|FALSE|FALSE (ssRNA)
RNA: GGGAGUUCUACAGUCCGACGAUCGUGUUUAAUCAGACAGUAUGCAAAAUAUGUACAACAAGUCUGGGUCCCCCUCCCCCAAGCCUGGGCAUGGAAUGUGGGAUCCCCAGGCCCUGCCCAGAGCUGGGGAGGGGUCCCCAAGGCCAACAGAGGAUUGAGCAUCA
B11: chr10:60895279:60895280:-_ENSMUSG00000020091_ENSMUST00000020288|mus_hu|motif|central (ssRNA)
RNA: GGGAGUUCUACAGUCCGACGAUCCACUGGAAGAUGUUUAAUUAAAAAGUUGCUGUUCAAAAUUGUACUGAAAACAUAUCGGAAAAUAGGUCUGUAGUCAUCUUAAAAAUAAAAGGUCACUUCUCAGAUAAGAGGAGUGACAGACAACAGAGGAUUGAGCAUCA
B12: chr3:53254358:53254359:-_ENSMUSG00000042997_ENSMUST00000130348|mus_mus|FALSE|FALSE (ssRNA)
RNA: GGGAGUUCUACAGUCCGACGAUCCAGAAGUCAAAAUCCCAGCACAGAGCAGGGAGGGGCUCAUGAAGCCUACCACGAACUAAGAAGCUACUGGAGGUAGCUGUGGGGGACCUUUCCUAAAAGGUGACCCUGCUUCGAGGAGUGCAACAGAGGAUUGAGCAUCA
B13: chr4:104905227:104905228:+_ENSMUSG00000028517_ENSMUST00000064139|mus_hu|FALSE|FALSE (ssRNA)
RNA: GGGAGUUCUACAGUCCGACGAUCACAAAAUGGAACCUUACAAAAAUACUGACAAUUUAAUGUUUUUAUACAGUUUUCUCUAGUUGCAGUUAUUUCAUUAUAAAACAAUGUCUACCACAGAACUAUGAUAUUUUAGUUGAUAUUCAACAGAGGAUUGAGCAUCA
B14: chr16:11966626:11966627:-_ENSG00000103342_ENST00000563468|hu_mus|motif|central (ssRNA)
RNA: GGGAGUUCUACAGUCCGACGAUCUUUUAACAUGUGCAGACACACUCCCACACUCAGAAUCAUCUGCCUGGGGGAAAAAGACGGACGGUGCCUAAGAAGAAAAUGAAAAAUAAAAAAAUUCCUGUAGGUUUUCAUUAUUGUAGGCAACAGAGGAUUGAGCAUCA
B15: chr11:100452861:100452862:-_ENSMUSG00000014195_ENSMUST00000014339|mus_mus|motif|central (ssRNA)
RNA: GGGAGUUCUACAGUCCGACGAUCCAUUCGUAAAAUGUCACUGGCCACAAACUGUGCUUCUGGGUAUCGACCAAGCAUUGCGGAACAUUCUGCUUUGAGAAUUUUGAAUCGAUGGCAGGCAGGGGCAAAUUCUAGGGCACGGUCCAACAGAGGAUUGAGCAUCA
B16: chr5:37680062:37680063:+_ENSMUSG00000029121_ENSMUST00000031004|mus_hu|mus_mus_mus_hu_False|18_48 (ssRNA)
RNA: GGGAGUUCUACAGUCCGACGAUCUUUGGGUGUAGCUGGUACCUCGUACACAGGACCGUCAUACAUGCCCCUGGAAACCCCUUGCAACCCGAAAACCUUAUUCCUGAUUUUGACGCGCUGGUAGAGAUGCUCCGGGAACGCCUUCAACAGAGGAUUGAGCAUCA
B17: chrX:34421674:34421675:+_ENSMUSG00000016308_ENSMUST00000016452|mus_hu|motif|central (ssRNA)
RNA: GGGAGUUCUACAGUCCGACGAUCGAACAUCUUAGAGACAAAUCUAACUGUAGGUGGUUUAUUUGGAUAUUCUUCAGUGAAUUCGGUUGUAAGUUUAAAUGUUCCAUCCUCAAACGGGGUCCCUUCAGGCCCGAAAAUGACCGCCAACAGAGGAUUGAGCAUCA
B18: chr2:5814250:5814251:-_ENSMUSG00000025816_ENSMUST00000102981|mus_hu|mus_mus_mus_hu_True|28_38 (ssRNA)
RNA: GGGAGUUCUACAGUCCGACGAUCUUCCUUUCCGGUUUCUGAAUUUCUGGUAGAACUGCACAGAAUGGUUUGAUAACUUCUAAAAAUUUGAUGCCCAUGGCGGCGGCUCAGCACACCCAGGGGGAAACCGCGGCCUCGGCGCUGCAACAGAGGAUUGAGCAUCA
B19: chr6:90346886:90346887:-_ENSG00000083099_ENST00000520318|hu_hu|FALSE|FALSE (ssRNA)
RNA: GGGAGUUCUACAGUCCGACGAUCCAGGGUAUGUUUUUCAGUGUUAAGGCAACUGUUCUGAUGUGUUUUUCCUUUGCUCUCUAUCACCAAAUACUGUACAUAUAAAUAGUAAGACUGGGCUUUGUGUUGUCCAUUGUUAAUCCUCAACAGAGGAUUGAGCAUCA
B20: chr1:109605286:109605287:-_ENSG00000197780_ENST00000461096|hu_mus|hu_hu_hu_mus_True|28_88 (ssRNA)
RNA: GGGAGUUCUACAGUCCGACGAUCAAGUUUCAGAGUAACAUUCAGUAUACUUAAAUCAUGCAAUUAUCCUUAUUAUAAGCUAAGCAGAAUAAUAAUUUAAUACCGUAAGUAAAUACAACACAAAGCCUGAACCGCGAAAAUGGUCAACAGAGGAUUGAGCAUCA
B21: chr7:65705475:65705476:+_ENSG00000169902_ENST00000304842|hu_hu|hu_hu_hu_mus_True|18_48 (ssRNA)
RNA: GGGAGUUCUACAGUCCGACGAUCUCUAUUCGGUGAUGGCACUCCAUGGCAUGCUGGCCCAGGUAAAACACGGUCACAGAACUAAUCACCAGACAUGCCAAGAGUAAGUUCUGCUUCAGCUUUCCAACCAUCUUGAUGUGGUUACAACAGAGGAUUGAGCAUCA
B22: chr11:46405157:46405158:+_ENSG00000110492_ENST00000395566|hu_mus|FALSE|FALSE (ssRNA)
RNA: GGGAGUUCUACAGUCCGACGAUCCCCUCCCCACUUUGGGCACUUGGUGUGGGCGUGAGAGGACAGGCGUGAUUGACAGAGCUGACAGGAAGACAAAAGGCACUGGUGGGUUAUAUCUUGGGCCUGUGGGAGAGGAGGGCUCCGCAACAGAGGAUUGAGCAUCA

Some of the results follow.

The values that follow come from publication PMC12136788.

This assay deals with T1, UNK ZnF1-3. The assay is described as follows: nsRBNS (natural sequence RNA bind-n-seq); RBNS binding buffer (assumed for nsRBNS): 25 mM Tris pH 7.5, 150 mM KCl, 3 mM MgCl2, 0.01% Triton X-100, 500 ug/ml BSA, 20 U/ml SUPERase-In, 4 C; UNK is unkempt and MSI1 is Musashi-1; names of the RNAs are library labels; protein concentration not given here; high values mean tight binding.
Regarding B1, the binding signal was determined as 0.985 enrichment R.
Molecule B2 gave a binding signal of 1.98 enrichment R.
Molecule B3 displayed a binding signal of 1.89 enrichment R.
The value for B4 was 0.867 enrichment R.
Turning to B5, the binding signal came out at 0.624 enrichment R.
As to B6, the binding signal is 0.834 enrichment R.
With B7, the binding signal was determined as 0.843 enrichment R.
In turn, B8 showed a binding signal of 0.567 enrichment R.
B9: the binding signal came out at 0.655 enrichment R.
The molecule B10 showed a binding signal of 0.597 enrichment R.
For B11, the binding signal was 1.58 enrichment R.
In the case of B12, the binding signal worked out at 1.16 enrichment R.
For B13 the value was 0.491 enrichment R.
Regarding B14, the binding signal stood at 1.82 enrichment R.
Consider B15, for which the binding signal came to 1.45 enrichment R.
For B16, the binding signal was determined as 0.821 enrichment R.
Regarding B17, the binding signal came out at 0.861 enrichment R.
The value for B18 was 0.936 enrichment R; that for B19 was 0.606 enrichment R; that for B20 was 0.775 enrichment R.
As to B21, the binding signal was 0.43 enrichment R.
In turn, B22 returned a binding signal of 2.26 enrichment R.
